Sequences and labels used below:
B1: CPEB3 Ribozyme (parent)
chain: UAACAGGGGGCCACAGCAGAAGCGUUCACGUCGCAGCCCCUGUCAGAUUCUGGUGAAUCUGCGAAUUCUGCUGUAUAUCUC

Read counts are not given, so values of variants with three or more changes are uncertain.

In this data set the parent is B1. Briefly: self-cleavage, relative activity (ratio to wild type); higher = more cleavage; in vitro, sequencing. The method in brief: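 For each CPEB3 ribozyme variant, relative activity is its cleaved/total read fraction divided by the unmutated ribozyme's. Barcoded error-prone PCR libraries were transcribed by T7 RNA polymerase (5 hours, 37°C) and held in DNase I for 15 min before an EDTA stop, with cleavage occurring throughout. Template-switching reverse transcription and Illumina sequencing were used to read the RNAs. A 5-read minimum applied, and results are the mean of three batches.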
In the case of U1C C50A U72C, the self-cleavage was found to be 1.01. The value for U1C U41A G73A A75G was 0.08; that for U1C U31A A35G U43C was 0.82.

With U1C U25C A35G, the self-cleavage was determined as 0.57. As for U1C C11U A20G A47G U49C A56G A65U, the figure is 0.11; as for U1C G9U A20C A35G G63C U76C, 0.04; as for U1C U43C A45G U48C U51C, 0.66. Consider U1C G30A G52A, for which the self-cleavage amounted to 0.26. U1C U31C U66A: the self-cleavage was 0.39. For U1C U51A U58C U69C, the self-cleavage amounted to 0.25. As for U1C U25C U74C U80C, the figure is 0.53. Take U1C U31C C44A G46A U66C: the self-cleavage worked out at 0.07. Turning to U1C G8A A20U, the self-cleavage stood at 0.08. U1C G8A C27A U49C U74A: the self-cleavage came to 0.11. The value for U1C U31A A64U was 0.09; that for U1C G8U C11G A35G U48C U80C was 0.05; that for U1C U31A A65U U66C was 0.27. Turning to U1C C11U A18G U25C G46C G53C U60C, the self-cleavage is 0.23. Regarding U1C G8U A21G G55A U58C, the self-cleavage is 0.03. As for U1C U25A A35G U43A U48C U58C, the figure is 0.05; as for U1C C17G U60C U66C U69A, 0.12. The value for U1C C38A U66C U67A was 0.25; that for U1C C23A C29A U78C was 0.23; that for U1C G19U U31C U54C A65G U66A was 0.04.

U1G A28G U43C A56U: the self-cleavage was determined as 0.35. For the variant U1C C11G C40G U51A A75G, the self-cleavage was 0.03.

Turning to U1C G36U U49C, the self-cleavage came to 0.15. As for U1C U31C U54C A64U, the figure is 0.18.

For U1C C71G U72C, the self-cleavage is 0.15. As for U1C G22A G36A U43C, the figure is 0.25; as for U1C G33A G36A A64U, 0.06.

On to U1C G16U A18U U67A, for which the self-cleavage came to 0.09. As for U1C U26C U31A U67C G70A, the self-cleavage is 0.13.

With U1C C17U C34U A35G, the self-cleavage amounted to 0.26.

Turning to U1G A5G A15U C38A A65G U78C, the self-cleavage was determined as 0.22. Regarding U1C G6A A13G A21G G22C U54C, the self-cleavage is 0.02. For the variant U1C U51A U54C, the self-cleavage turned out to be 1.14. Regarding U1C C23A C39U C40U, the self-cleavage turned out to be 0.07. As for U1C G7C A13U U43A C71A U72C, the figure is 0.15; as for U1C G7U A15U, 0.34. The value for U1C U25C G46U was 0.3; that for U1C G33A A57G was 0.05. The value for U1G A21G C62U U72C was 0.09. With U1C U26C U67A, the self-cleavage was found to be 0.06. With U1C C11U G24C U67C, the self-cleavage was found to be 0.06.

Regarding U1C C23U U26A A65G U80C, the self-cleavage came out at 0.06.

For U1G A20U G33A, the self-cleavage was determined as 0.3. For U1C U43C A57G U58C, the self-cleavage was 0.07. Regarding U1C G61A U74C U78C, the self-cleavage was 0.81.

As to U1C U41G U54C U58A A75G, the self-cleavage was 0.26. Consider U1C G10C U31C U54A, for which the self-cleavage was determined as 0.22. Take U1C G22A U41A U54C U69C: the self-cleavage was found to be 0.07. As for U1C C17A U41C, the figure is 0.45; as for U1C C4G A47G, 1.12. For the variant U1C C11G U51C, the self-cleavage worked out at 0.63. As to U1C C29U G63U, the self-cleavage came to 0.3. In the case of U1C U31C A35U U43A U69A, the self-cleavage worked out at 0.1. The value for U1C U25C C68A was 0.23; that for U1G A2G A15G A35C U49C U60C was 0.33; that for U1C G33A U49C A65U was 0.05.

U1C G36U U72A: the self-cleavage came to 0.05. As for U1C G10A C29A A45U C71U, the figure is 0.05; as for U1G A3C A15G A28U A75C, 0.57; as for U1C U41C A64U, 0.26.

Take U1C C11U A35G: the self-cleavage worked out at 1.15. The value for U1C G6A U48A U54G U69C was 0.17; that for U1C U43C A45G U51C U69A was 0.36; that for U1C U43C A56G was 0.43.

For the variant U1C U41C U49C, the self-cleavage worked out at 0.76.

In the case of U1C C4U A15G C40A A45G U51A, the self-cleavage worked out at 0.22. As for U1C U41A U51C, the figure is 0.35.

Regarding U1C U43A U60C, the self-cleavage was found to be 0.22. As for U1C U26C U41C, the figure is 0.57; as for U1C G8C C14U U69C U72A, 0.05.

With U1C U67C U72A, the self-cleavage was 0.11. For U1G A5U G30U A35G G42U, the self-cleavage stood at 0.09.

In the case of U1C C11U A18G A28G G36A U41A, the self-cleavage amounted to 0.04.

With U1C U26A C27A, the self-cleavage is 0.07.

In the case of U1C U25A G42A U58C U67C U78A U80C, the self-cleavage stood at 0.04. With U1C G6A A47G U58C A75G, the self-cleavage is 0.07. As for U1C U41C A56G U60C, the figure is 0.29; as for U1C C27G U58C U69A U74G A75U, 0.16; as for U1C G8A A18G A35U U58C, 0.21.

For the origin of these results see the RNAGym collection of RNA variant scans (doi:10.1093/nar/gkz1192).
